In PubChem BioAssay AID686979 (National Center for Advancing Translational Sciences (NCATS), 2013):
Several values for one entry are separate records, joined by “and”; a condition that tells them apart may be missing. Equal values may be shown once. In all, about 420,000 compounds went through this assay and about 50,000 (12%) were called active. The shares of active, inactive and inconclusive entries below differ from those in the screen. Calls follow the shape of the dose curve; as a rule, active = well fitted inhibition curve with a large enough effect; inconclusive = small, poorly fitted or top-dose-only effect; inactive = flat fitted curve, though single readings scatter. A potency beside an inconclusive call is a rough fit, not a confirmed value.

assay: qHTS for Inhibitors of human tyrosyl-DNA phosphodiesterase 1 (TDP1): qHTS in cells in presence of CPT; details: chicken DT40 Tdp1-/-;hTDP1 cells + 20 nM CPT, ATP luminescence, 48 h; activity change, negative = growth inhibition: at 46.2 µM (top of the series) unless noted; also: nearly all actives have a fitted effect of over 55% in size
In short: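 Chicken DT40 Tdp1-/- cells stably complemented with human TDP1 were seeded at 400 cells/well in medium containing 20 nM camptothecin, exposed to pin-transferred compounds, and grown at 37 °C for at least 48 hr. Viability was read as ATP luminescence.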
% is scaled to controls: 0 for no effect and ±100 for the full control effect; potency is read from the fitted curve at half-maximal effect; tags tell the direction and shape of the fitted curve.

Compound	Potency	activity change, negative = growth inhibition
COc1ccccc1CNC(=O)CCNS(=O)(=O)c1cc(Br)cnc1N	inconclusive: 29.1 µM [inhibitor, single point]	–
Cc1cc(C)n(C2CC(=O)N(c3ccc(Cl)c(Cl)c3)C2=O)n1 (centres undefined)	inactive	–
Cc1cccc(-n2ncc3c(Nc4c(C)n(C)n(-c5ccccc5)c4=O)ncnc32)c1	inconclusive: 10.3 µM [inhibitor, single point]	–
Cc1ccc2oc(=O)c(/C=C(\O)CC(C)C)nc2c1	active: 23.1 µM	–
Cc1c(C(=O)OCC(=O)N(C)Cc2ccccc2)oc2ccccc12	inconclusive: 25.9 µM [inhibitor, single point]	–
O=C1NC(c2ccccc2Br)=N/C1=C\c1ccco1	inconclusive: 23.1 µM [inhibitor, single point]	–
COc1ccc(O)c(C(=O)C2c3ccccc3C(=O)N2c2ccc(C)cc2)c1 (centres undefined)	inactive	–
CC(=O)Nc1cccc(NC(=O)c2ccc(S(=O)(=O)NCc3ccco3)cc2)c1	inconclusive: 32.6 µM [inhibitor, single point]	–
CS(=O)(=O)c1ncc(Cl)c(C(=O)Nc2ccc3ccccc3c2)n1	active: 1.03 µM	–
Cc1cccc(CN2CCC(N3CC(C)OC(C)C3)CC2)c1 (centres undefined)	inactive	–
O=C(OCn1nnc2ccccc2c1=O)C1COc2ccccc2O1 (centres undefined)	inactive	–
Nc1nc(CN2CCN(C(c3ccccc3)c3ccccc3)CC2)nc(Nc2ccccc2)n1	inconclusive: 29.1 µM [inhibitor, single point]	–
O=[N+]([O-])c1c(Nc2ccccn2)cc(Cl)c2nonc12	active: 1.84 µM	–
COc1ccc(OCC(O)Cn2c(=N)n(CCN3CCCCC3)c3ccccc32)cc1 (centres undefined)	active: 13 µM	–
Cc1ccc(N2C(=O)N3[C@H](c4ccc(F)cc4)[C@@H]4C(=O)N(C5CCCCC5)C(=O)[C@@H]4[C@]3(Cc3ccccc3)C2=O)cc1	inactive	–
O=[N+]([O-])c1ccccc1NCCNS(=O)(=O)c1ccc(Cl)cc1	inactive	–
O=C(CCC1N=C2c3ccccc3N=C(SCc3ccc(Cl)cc3)N2C1=O)NCc1cccs1 (centres undefined)	inconclusive: 29.1 µM [inhibitor, single point]	–
Cc1ccc(-c2cc(-c3ccccc3)c(C#N)c(N)n2)o1	active: 23.1 µM	–
Cc1ccc(S(=O)(=O)Oc2ccccc2/C=N/Nc2ccc(C(=O)O)cc2)cc1	inactive	–
C[C@@H](NC(=O)Cn1cnc2c(OCc3ccccc3)ncnc21)c1cccc2ccccc12	inconclusive: 16.4 µM [inhibitor, single point]	–
COc1ccc(CCNc2ncnc3c2cnn3-c2ccc(C)c(Cl)c2)cc1	active: 20.6 µM	–
Cn1c(=O)c2ccccc2n(Cc2ccccc2Cl)c1=O	inconclusive: 29.1 µM [inhibitor, single point]	–
CC[n+]1c(C)n(-c2ccccc2)c2ccc(C(=O)OC)cc21	inactive	–
COc1ccc(NC(=O)CN(C)C2CCS(=O)(=O)C2)cc1 (centres undefined)	inactive	–
CCCCN(CCCC)S(=O)(=O)c1ccc(NC(=O)CN2CCOCC2)cc1	inconclusive: 5.17 µM [inhibitor, partial curve]	–

Compound	Potency	activity change, negative = growth inhibition
CC(=O)c1ccc(N2CCN(C(=O)C3CCN(S(=O)(=O)c4ccc5c(c4)CC(C)N5C(=O)C4CC4)CC3)CC2)cc1 (centres undefined)	active: 11.6 µM	–
O=C(Nc1ccc2c(c1)OCO2)N1CCN(S(=O)(=O)c2ccc(Cl)cc2)CC1	–	inconclusive: -39.8% [inhibitor]
COc1ccc(NC(=O)CN(C)C(=O)C2=COCCO2)cc1	inactive	–
Cc1cnc(C(=O)N2CCCC(C(=O)c3cccc(OC(C)C)c3)C2)cn1 (centres undefined)	inconclusive: 29.1 µM [inhibitor, single point]	–
COc1ccc(CCNC(C)C(=O)Nc2ccc(S(N)(=O)=O)cc2)cc1 (centres undefined)	inactive	–
CCOc1ccc(-c2nn(-c3ccccc3)cc2/C=C2\SC(=S)N(Cc3ccco3)C2=O)cc1	inconclusive: 20.6 µM [inhibitor, partial curve]	–
Cc1ccc(S(=O)(=O)Nc2ccccc2N(C)S(=O)(=O)c2ccc(C)cc2)cc1	inconclusive: 29.1 µM [inhibitor, single point]	–
CN(C)c1ccc(CNC(=O)CN2C(=O)C3CCCCN3c3ccc(C(=O)N4CCCC4)cc32)cc1 (centres undefined)	active: 23.1 µM	–
COC(=O)c1ccc(C(=O)O)nc1	inactive	–
CCOc1ccc(CCN2C(=S)N([C@@H](Cc3ccc(O)cc3)CN3CCC[C@@H]3CN3C(=S)NC[C@@H]3Cc3ccccc3)C[C@@H]2CC(C)C)cc1	active: 10.3 µM	–
O=C(Nc1ccc(F)cc1)c1cccc2c1C(=O)N(Cc1ccccn1)C2	inconclusive: 25.9 µM [inhibitor, single point]	–
O=C(NCC1CCCO1)c1ccc(Br)s1 (centres undefined)	inactive	–
CC(=O)/C=C(\C)Nc1ccc(-c2cnc(-c3ccccc3)o2)cc1	inactive	–
COc1ccc(-c2nn(-c3ccccc3F)cc2CNCCn2nc(C)cc2C)cc1	inconclusive: 29.1 µM [inhibitor, single point]	–
O=C(Nc1ccccn1)c1ccco1	inactive	–
Cc1ccc(N(CCC#N)C(=O)CCl)cc1C	inconclusive: 8.2 µM [inhibitor, partial curve, poor fit]	–
CN1CCN(c2ccccc2NC(=O)c2ccc3c(c2)OCCO3)CC1	inactive	–
O=C1O/C(=C\c2ccc(O)cc2)C(O)=C1c1ccc(O)cc1	inactive	–
N#Cc1ccccc1-c1ccc2ncnc(NCCN3CCOCC3)c2c1	inconclusive: 20.6 µM [inhibitor, single point]	–
CCOc1cc2nc3c4ccccc4n(C)c3nc2cc1OCC	inconclusive: 18.4 µM [inhibitor, single point]	–
CC1(OC(=O)CCc2ccccc2)C(=O)C=C2C=C(c3ccc(C#N)cc3)N(c3ccccc3)C=C2C1=O (centres undefined)	inconclusive: 23.1 µM [inhibitor, partial curve]	–
O=C(COc1ccc(Cl)cc1)NCCCNC(=O)c1cccnc1	inactive	–
CCOC(=O)c1sc2nc(C)nc(NCCc3ccccn3)c2c1C	active: 20.6 µM	–
CCOC(=O)c1[nH]c2ccc(Br)cc2c1NC(=O)CCN1CCC(C)CC1	inconclusive: 18.4 µM [inhibitor, single point]	–
O=C(Nc1ccc(SC(F)F)cc1)c1cc(-c2ccncc2)nc2ccccc12	inconclusive: 32.6 µM [inhibitor, single point]	–

Compound	Potency	activity change, negative = growth inhibition
Cn1c(=O)c2c(ncn2CC(=O)OCC(=O)c2ccc(Br)cc2)n(C)c1=O	active: 16.4 µM	–
COc1ccc(C(=O)COC(=O)CN2C(=O)NC3(CC(C)CC(C)(C)C3)C2=O)c(OC)c1 (centres undefined)	inconclusive: 13 µM [inhibitor, partial curve]	–
CC1(C(=O)Nc2ccc3c(c2)OCO3)Cc2c(-c3cccc(C(N)=O)c3)ccnc2O1 (centres undefined)	active: 2.91 µM	–
N#Cc1c2c(c(-c3ccccc3Cl)[nH]c1=S)CCCC2	inactive	–
O=C(NCCOc1ccccc1)C1Nc2ccc(C(F)(F)F)cc2C2c3ccccc3CC12 (centres undefined)	inconclusive: 18.4 µM [inhibitor, single point]	–
Cc1cc(NS(=O)(=O)c2ccc(NC(=O)/C=C/c3ccccc3)cc2)no1	inconclusive: 14.6 µM [inhibitor, single point]	–
COCCNC(=O)C(=O)Nc1cc2c3c(c1)CCC(=O)N3CCC2	inactive	–
Cc1ccc(C(=O)N/N=C\c2ccc[nH]2)cc1[N+](=O)[O-]	inactive	–
OC(C[n+]1c(Cl)ccc2ccccc21)c1ccccc1 (centres undefined)	active: 8.91 µM	–
Cc1ccc(Nc2nc(N)nc(CSc3nc4ccccc4s3)n2)cc1	inconclusive: 29.1 µM [inhibitor, single point] and inconclusive: 23.1 µM [inhibitor, single point]	–
CCOc1cc(/C=N\NC(=O)Cn2nc([N+](=O)[O-])cc2C)ccc1OCc1cccc2ccccc12	inconclusive: 29.1 µM [inhibitor, single point]	–
Cc1ccc(-c2c[n+](CC(=O)c3ccc(Br)cc3)c3n2CCCCC3)cc1	active: 1.46 µM	–
Cc1ccc2sc(N(CCCN(C)C)C(=O)c3ccc(Br)s3)nc2c1C	inconclusive: 29.1 µM [inhibitor, single point]	–
COc1ccc(C(CNC(=O)c2oc3cc(C)c(C)cc3c2C)N2CCCCC2)cc1 (centres undefined)	active: 13 µM	–
CS(=O)(=O)N1CCC2CC1c1cc(-c3ccccc3)ccc12 (centres undefined)	inconclusive: 23.1 µM [inhibitor, single point]	–
NC(=O)CSc1nnnn1-c1ccccc1Cl	inactive	–
Cc1ccc(S(=O)(=O)N2CCC(=O)N(C(COC(=O)Nc3ccccc3)Cc3ccccc3)CC2)cc1 (centres undefined)	active: 20.6 µM	–
COc1ccc(-c2coc3c(C(=O)N4CCN(C)CC4)cccc23)c(C)c1	inconclusive: 13 µM [inhibitor, partial curve]	–
CCCn1c(SCC(=O)Nc2sc(C)c(C)c2C(=O)OCC)nc2c1c(=O)n(C)c(=O)n2C	inconclusive: 29.1 µM [inhibitor, single point]	–
Cc1ccc(/C=N/NC(=O)C(C)Oc2ccccc2[N+](=O)[O-])s1 (centres undefined)	inconclusive: 10.3 µM [inhibitor, partial curve]	–
Cc1c2cnn(CC(=O)NCc3ccc(Cl)cc3)c(=O)c2c(C)n1Cc1ccc(F)cc1	inconclusive: 25.9 µM [inhibitor, single point]	–
O=[N+]([O-])c1ccc(OCCCCN2CCCCC2)cc1	inactive	–
COCCn1c(=O)c(-c2ccc(OC)cc2)nc2cnc(OC)nc21	inconclusive: 14.6 µM [inhibitor, single point]	–
CCCCc1ccc(-c2nn[nH]n2)nc1	–	inconclusive: -25.2% [inhibitor]
